Consider 31 compounds from the supplement of paper PMC4604168 (melanoma cell lines).

SMILES strings stand for the structures. The list shows a part of the results. Repeats are few or missing, and single values can be far off.
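Further: cells treated in 1,536-well plates, then fixed and DAPI-stained, with nuclei counted from automated high-throughput microscope images.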

The assay has as its system A375. The assay is described as follows: cell count relative to DMSO control; melanoma cells; higher = more viable cells. The note with it: library dose: standard library concentration; 72 h.
`O=C(O)c1ccc2c(c1)nc(Nc1cccc(Cl)c1)c1ccncc12` + CC(C)(C)c1cnc(CSc2cnc(NC(=O)C3CCNCC3)s2)o1 [SNS-032] (first compound 2 µM, partner dose 0.05 µM) displayed a cell count of 70.2%. `O=C(Nc1cc(C(F)(F)F)cc(C(F)(F)F)c1)c1cc(Cl)ccc1O` + O=C(O)c1ccc2c(c1)nc(Nc1cccc(Cl)c1)c1ccncc12 [CX4945] (first compound 0.08 µM, partner dose 2 µM) displayed a cell count of 76.8%. `Cn1nnc2c(C(N)=O)ncn2c1=O` [temozolomide] + COc1cc2c(Oc3ccc4[nH]c(C)cc4c3F)ncnc2cc1OCCCN1CCCC1 [cediranib] (first compound 10 µM, partner dose 2 µM) showed a cell count of 115%. The result for `O=C(Nc1cc(C(F)(F)F)cc(C(F)(F)F)c1)c1cc(Cl)ccc1O` + Clc1ccc(Nc2nnc(Cc3ccncc3)c3ccccc23)cc1 [vatalanib] (first compound 0.08 µM, partner dose 10 µM) reads 79.6%; that for `O=C(O)c1ccc2c(c1)nc(Nc1cccc(Cl)c1)c1ccncc12` + Oc1cc(-c2nc(-c3ccccc3)[nH]c2-c2ccncc2)ccc1Cl [L779450] (first compound 2 µM, partner dose 1 µM), 63.8%; that for `O=C(O)c1ccc2c(c1)nc(Nc1cccc(Cl)c1)c1ccncc12` + O=C(Nc1cccc(Cl)c1)Nc1ncc(CCNc2ncnc3ccsc23)s1 [SNS314] (first compound 2 µM, partner dose 0.004 µM), 76.9%. In turn, `O=C(Nc1cc(C(F)(F)F)cc(C(F)(F)F)c1)c1cc(Cl)ccc1O` + Cc1cn(-c2cc(NC(=O)c3ccc(C)c(Nc4nccc(-c5cccnc5)n4)c3)cc(C(F)(F)F)c2)cn1 [nilotinib] (first compound 0.08 µM, partner dose 1 µM) registered a cell count of 130%.

Compound `Cc1cc(N2CCOCC2)cc2[nH]c(-c3c(NC[C@@H](O)c4cccc(Cl)c4)cc[nH]c3=O)nc12` + Cn1cncc1[C@@](N)(c1ccc(Cl)cc1)c1ccc2c(c1)c(-c1cccc(Cl)c1)cc(=O)n2C [tipifarnib] (first compound 1 µM, partner dose 0.05 µM) had a cell count of 91.9%. `Cn1nnc2c(C(N)=O)ncn2c1=O` [temozolomide] + NCC(=O)Nc1ccc(-n2nc(C(F)(F)F)cc2-c2ccc3c(ccc4ccccc43)c2)cc1 [OSU03012] (first compound 10 µM, partner dose 5 µM) had a cell count of 50.4%. Compound `O=C(Nc1cc(C(F)(F)F)cc(C(F)(F)F)c1)c1cc(Cl)ccc1O` + C#Cc1cccc(Nc2ncnc3cc(OCCOC)c(OCCOC)cc23)c1 [erlotinib] (first compound 0.08 µM, partner dose 4 µM) returned a cell count of 97.2%. Regarding `O=C(O)[C@@H]1[O][Sb](=[O])([O][Sb]2(=[O])[O][C@H]([C@H](O)CO)[C@H](O)[C@H](C(=O)O)[O]2)[O][C@H]([C@H](O)CO)[C@@H]1O` (stereo partly specified) [stibogluconate] + Cc1cc(N2CCOCC2)cc2[nH]c(-c3c(NC[C@@H](O)c4cccc(Cl)c4)cc[nH]c3=O)nc12 [BMS536924] (first compound 10 µM, partner dose 1 µM), the cell count was determined as 127%. Take `O=C(Nc1cc(C(F)(F)F)cc(C(F)(F)F)c1)c1cc(Cl)ccc1O` + C=CCNC1=C2C[C@@H](C)C[C@H](OC)[C@H](O)[C@@H](C)/C=C(\C)[C@H](OC(N)=O)[C@@H](OC)/C=C\C=C(/C)C(=O)NC(=CC1=O)C2=O [Tanespimycin] (first compound 0.08 µM, partner dose 0.01 µM): the cell count was 87.9%. Compound `O=C(O)c1ccc2c(c1)nc(Nc1cccc(Cl)c1)c1ccncc12` + CCN(CC)CCCCNc1ncc2cc(-c3cc(OC)cc(OC)c3)c(NC(=O)NC(C)(C)C)nc2n1 [PD173074] (first compound 2 µM, partner dose 0.5 µM) displayed a cell count of 111%. Take `O=C(O)c1ccc2c(c1)nc(Nc1cccc(Cl)c1)c1ccncc12` + NCC(=O)Nc1ccc(-n2nc(C(F)(F)F)cc2-c2ccc3c(ccc4ccccc43)c2)cc1 [OSU03012] (first compound 2 µM, partner dose 5 µM): the cell count amounted to 48%. The result for `O=C(Nc1ccccc1)c1cc([N+](=O)[O-])ccc1Cl` + COc1ccc2c(c1)CCC1C2CCC2(C)C(NCCCCCCN3C(=O)C=CC3=O)CCC12 [U73122] (first compound 10 µM, partner dose 2 µM) reads 80.6%; that for `O=C(O)[C@@H]1[O][Sb](=[O])([O][Sb]2(=[O])[O][C@H]([C@H](O)CO)[C@H](O)[C@H](C(=O)O)[O]2)[O][C@H]([C@H](O)CO)[C@@H]1O` (stereo partly specified) [stibogluconate] + Nc1ncn([C@H]2C[C@H](O)[C@@H](CO)O2)c(=O)n1 [decitabine] (first compound 10 µM, partner dose 0.5 µM), 111%; that for `O=C(Nc1cc(C(F)(F)F)cc(C(F)(F)F)c1)c1cc(Cl)ccc1O` + COc1cc(Nc2ncc(F)c(Nc3ccc4c(n3)NC(=O)C(C)(C)O4)n2)cc(OC)c1OC [Tamatinib] (first compound 0.08 µM, partner dose 2 µM), 110%. The result for `O=C(Nc1cc(C(F)(F)F)cc(C(F)(F)F)c1)c1cc(Cl)ccc1O` + CC(C)(C)c1cnc(CSc2cnc(NC(=O)C3CCNCC3)s2)o1 [SNS-032] (first compound 0.08 µM, partner dose 0.05 µM) reads 127%; that for `O=C(O)[C@@H]1[O][Sb](=[O])([O][Sb]2(=[O])[O][C@H]([C@H](O)CO)[C@H](O)[C@H](C(=O)O)[O]2)[O][C@H]([C@H](O)CO)[C@@H]1O` (stereo partly specified) [stibogluconate] + N#Cc1c(O)c2c(-c3ccc(-c4ccccc4O)cc3)csc2[nH]c1=O [A769662] (first compound 10 µM, partner dose 10 µM), 115%; that for `O=C(O)[C@@H]1[O][Sb](=[O])([O][Sb]2(=[O])[O][C@H]([C@H](O)CO)[C@H](O)[C@H](C(=O)O)[O]2)[O][C@H]([C@H](O)CO)[C@@H]1O` (stereo partly specified) [stibogluconate] + O=c1cc(-c2cccc3c2Sc2ccccc2S3)oc(N2CCOCC2)c1 [KU55933] (first compound 10 µM, partner dose 5 µM), 134%. `O=C(O)[C@@H]1[O][Sb](=[O])([O][Sb]2(=[O])[O][C@H]([C@H](O)CO)[C@H](O)[C@H](C(=O)O)[O]2)[O][C@H]([C@H](O)CO)[C@@H]1O` (stereo partly specified) [stibogluconate] + COC(=O)c1sccc1S(=O)(=O)Nc1ccc(Nc2ccccc2)cc1OC [GSK0660] (first compound 10 µM, partner dose 5 µM) yielded a cell count of 102%. `O=C(O)c1ccc2c(c1)nc(Nc1cccc(Cl)c1)c1ccncc12` + Cn1c(Nc2ccc(C(F)(F)F)cc2)nc2cc(Oc3ccnc(-c4ncc(C(F)(F)F)[nH]4)c3)ccc21 [CHIR265] (first compound 2 µM, partner dose 0.4 µM) displayed a cell count of 60.6%. Turning to `O=C(O)c1ccc2c(c1)nc(Nc1cccc(Cl)c1)c1ccncc12` + c1cc(-c2cnn3cc(-c4ccc(OCCN5CCCCC5)cc4)cnc23)ccn1 [Dorsomorphin] (first compound 2 µM, partner dose 2 µM), the cell count came out at 70.8%. The result for `O=C(Nc1cc(C(F)(F)F)cc(C(F)(F)F)c1)c1cc(Cl)ccc1O` + Nc1ccn([C@@H]2O[C@H](CO)[C@@H](O)C2(F)F)c(=O)n1 [gemcitabine] (first compound 0.08 µM, partner dose 0.002 µM) reads 94.7%.

In the case of `Cn1nnc2c(C(N)=O)ncn2c1=O` [temozolomide] + CCc1ccc(CCOc2ccc(CC3SC(=O)NC3=O)cc2)nc1 [pioglitazone] (first compound 10 µM, partner dose 10 µM), the cell count is 95%. `O=C(O)c1ccc2c(c1)nc(Nc1cccc(Cl)c1)c1ccncc12` + CO[C@@H]1[C@H](N(C)C(=O)c2ccccc2)C[C@H]2O[C@]1(C)n1c3ccccc3c3c4c(c5c6ccccc6n2c5c31)C(=O)NC4 [Midostaurin] (first compound 2 µM, partner dose 0.4 µM) came in with a cell count of 52.9%. `Cc1cc(N2CCOCC2)cc2[nH]c(-c3c(NC[C@@H](O)c4cccc(Cl)c4)cc[nH]c3=O)nc12` + CN(NC(=O)CC(=O)NN(C)C(=S)c1ccccc1)C(=S)c1ccccc1 [STA4783] (first compound 1 µM, partner dose 0.03 µM) returned a cell count of 153%. The result for `O=C(Nc1cc(C(F)(F)F)cc(C(F)(F)F)c1)c1cc(Cl)ccc1O` + c1cc(-c2cnn3cc(-c4ccc(OCCN5CCCCC5)cc4)cnc23)ccn1 [Dorsomorphin] (first compound 0.08 µM, partner dose 2 µM) reads 82.4%; that for `O=C(O)c1ccc2c(c1)nc(Nc1cccc(Cl)c1)c1ccncc12` + OCc1c[nH]c2ccccc12 [Indole-3-carbinol] (first compound 2 µM, partner dose 4 µM), 105%; that for `O=C(Nc1ccccc1)c1cc([N+](=O)[O-])ccc1Cl` + c1cc(-c2cnn3cc(-c4ccc(OCCN5CCCCC5)cc4)cnc23)ccn1 [Dorsomorphin] (first compound 10 µM, partner dose 2 µM), 66.7%. `O=C(O)c1ccc2c(c1)nc(Nc1cccc(Cl)c1)c1ccncc12` + OCCn1cc(-c2cnc3nnn(Cc4ccc5ncccc5c4)c3n2)cn1 [PF04217903] (first compound 2 µM, partner dose 5 µM): the cell count was 66.1%.
